{
  "source": "the supplement of paper PMC10338343",
  "note": "± gives the standard deviation. In all, about 6,600 sequences were measured (“pre-steady-state target cleavage rate”: median about 0.07, highest 2% from about 0.72 on). This is a selection; strong and weak results do not stand in their true shares.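 Further: 1 nM active piRISC with 0.1 nM target library at 33 °C single turnover.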",
  "data": [
    {"test_system": "MIWI (PIWIL1) piRISC loaded with Kctd7 piRNA (30 nt)", "assay": "pre-steady-state target cleavage rate (min^-1); MIWI and MILI are mouse PIWI proteins and EfPiwi is from a freshwater sponge; tags in brackets are library labels; higher = faster piRNA-guided slicing of the target", "conditions": "guide: Kctd7 piRNA 5'p-UGUUAAUCUCUCAGAGAAGGUGACAGUGAU; auxiliary factor: 500 nM mouse GTSF1", "summary_of_the_method": "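At 33 °C in HEPES–potassium acetate buffer, a transcribed, DNA-blocked target RNA library […] was exposed for 0–8 or 0–960 min to 1 nM active affinity-purified piRISC carrying a single synthetic guide, with or without 500 nM GTSF1 partner protein. Uncleaved targets were sequenced and normalised to depth and to weakly complementary targets. With three trials pooled and k3 capped at 0.0001 min^-1, a burst-and-steady-state fit produced the pre-steady-state cleavage rate.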", "values": [
      {"sequence": "UACACUGUCACGCUUCUCUGAGAGAUUAACA", "pre-steady-state target cleavage rate": "0.463 ± 0.034"},
      {"sequence": "UAGUGACAGACCUUCUCUGACAGAUUUACA", "pre-steady-state target cleavage rate": "0.00592 ± 0.0031"},
      {"sequence": "UAGUCUGUCACCUUCUCUGAGUGAUAAACA", "pre-steady-state target cleavage rate": "0.0376 ± 0.0083"},
      {"sequence": "UAGUGACACACCUUCUCUGUGUGAUUAACA", "pre-steady-state target cleavage rate": "0.00663 ± 0.006"},
      {"sequence": "UAGUGACUCACCUUCUCUGAGCGAUUAACA", "pre-steady-state target cleavage rate": "0.118 ± 0.013"},
      {"sequence": "UAGACUUCACCUUCUCUGAGAGAUUAACA", "pre-steady-state target cleavage rate": "0.576 ± 0.04"},
      {"sequence": "UAGUCUGUCACGUUCUCUGAGAGUUUAACA", "pre-steady-state target cleavage rate": "0.107 ± 0.013"},
      {"sequence": "UAGUGACUCACCUUCUCUGAGAGAUUUACA", "pre-steady-state target cleavage rate": "0.274 ± 0.035"},
      {"sequence": "UAGUGAGUCACCUUCUCUGAGACUUUUUGA", "pre-steady-state target cleavage rate": "0.0215 ± 0.0082"},
      {"sequence": "UACACUGACACCUUCUCUGAGAGAUUAAGA", "pre-steady-state target cleavage rate": "0.104 ± 0.026"},
      {"sequence": "UAGUGUGUCACCUUCUCUGAGAGUAUAUGA", "pre-steady-state target cleavage rate": "0.0145 ± 0.0066"},
      {"sequence": "UUCACUGUCACCAUCACUGAGAGAUUAACA", "pre-steady-state target cleavage rate": "0.462 ± 0.026"},
      {"sequence": "AUGACUGUCACCUACUCUGAGAGAUUAACA", "pre-steady-state target cleavage rate": "0.736 ± 0.042"},
      {"sequence": "UAGACUGUCACGAUCUCUGAGAGAUUAAGA", "pre-steady-state target cleavage rate": "0.034 ± 0.0078"},
      {"sequence": "UAGUGACACACCUCCUCUGAGAGAUUAACA", "pre-steady-state target cleavage rate": "0.53 ± 0.024"},
      {"sequence": "UAGUGACACACGUUCUCUGAGAGAUAAACA", "pre-steady-state target cleavage rate": "0.0839 ± 0.011"},
      {"sequence": "AUCUCUGUCAGCUUCUCUGAGAGAUUAACA", "pre-steady-state target cleavage rate": "0.678 ± 0.032"},
      {"sequence": "UACACUGUCACCAAGUCUGAGAGAUUAAGA", "pre-steady-state target cleavage rate": "0.0266 ± 0.012"},
      {"sequence": "UAGUGUCAGACCUUCUCUGAGAGAUUAUGA", "pre-steady-state target cleavage rate": "0.00374 ± 0.0036"},
      {"sequence": "UAGUGACAGUGCUUCUCUAAGAGAUUAACA", "pre-steady-state target cleavage rate": "0.00732 ± 0.0026"},
      {"sequence": "UAGUGACACACCUUCUCAGAGAGUUUAACA", "pre-steady-state target cleavage rate": "0.0516 ± 0.013"},
      {"sequence": "UAGUGACAGUGGAAGAGACAUAGAUUAACA", "pre-steady-state target cleavage rate": "< 0.0001"},
      {"sequence": "UAGUCUGUCACCUUCUCUGAGAGAUUACACA", "pre-steady-state target cleavage rate": "0.239 ± 0.031"},
      {"sequence": "AUCAGUGUCACCUUCUCUGAGAGAUUAUCA", "pre-steady-state target cleavage rate": "0.253 ± 0.042"},
      {"sequence": "UAGUGACACUCCUUCUCUGAGAGAUUAUCA", "pre-steady-state target cleavage rate": "0.0975 ± 0.017"},
      {"sequence": "UAGUGACACGACCUUCUCUGAGAGAUUAACA", "pre-steady-state target cleavage rate": "0.302 ± 0.021"},
      {"sequence": "UAGUGACUCACCUUCUCUGAGUCAUUAACA", "pre-steady-state target cleavage rate": "0.00987 ± 0.0037"},
      {"sequence": "UAGUGAGUCACCUUCUCUGAGUGAUUAAGA", "pre-steady-state target cleavage rate": "0.00713 ± 0.0034"},
      {"sequence": "UACACUGUCACCUUCUCUGAGAGAUUCAACA", "pre-steady-state target cleavage rate": "0.465 ± 0.084"},
      {"sequence": "AUCACUCUCACCUUCACUGAGAGAUUAACA", "pre-steady-state target cleavage rate": "0.364 ± 0.022"},
      {"sequence": "UAGUGACAGACCUUCUCUGAGAGAUUAACU [g2:g21:cont:t1U]", "pre-steady-state target cleavage rate": "0.0886 ± 0.0091"},
      {"sequence": "AUCACUGUCACCUUCUCUGAGACAUAAACA", "pre-steady-state target cleavage rate": "0.0216 ± 0.0092"},
      {"sequence": "UUCACAGUCACCUUCUCUGAGUGAUUAACA", "pre-steady-state target cleavage rate": "0.0427 ± 0.0083"},
      {"sequence": "UAGUGAGUCACCUUCUCUGAGAGAUUAUACA", "pre-steady-state target cleavage rate": "0.345 ± 0.054"},
      {"sequence": "UAGUCUGUCUCCUUCUCUGAGAGAUUAUCA", "pre-steady-state target cleavage rate": "0.207 ± 0.029"},
      {"sequence": "UAGUGACACACCUUCUCUGAGAGUUUAAGA", "pre-steady-state target cleavage rate": "0.0183 ± 0.0078"},
      {"sequence": "AUCACUGUCUGGUUCUCUGAGAGAUUAAGA", "pre-steady-state target cleavage rate": "0.0372 ± 0.0069"},
      {"sequence": "UAGUGAGUCACCUUGUCUGAGAGAUUUUGA", "pre-steady-state target cleavage rate": "0.0167 ± 0.0078"},
      {"sequence": "UAGUGACACACCUUCUCUGUGAGAUUUUGA", "pre-steady-state target cleavage rate": "0.00561 ± 0.0036"},
      {"sequence": "UAGUGACACACGUUCUCUGAGAGAUUAUCA", "pre-steady-state target cleavage rate": "0.1 ± 0.018"},
      {"sequence": "UAGUCUGUCCCUUCUCUGAGAGAUUAACA", "pre-steady-state target cleavage rate": "0.585 ± 0.047"},
      {"sequence": "UAGUCCUGUCACCUUCUCUGAGAGAUUAACA", "pre-steady-state target cleavage rate": "0.67 ± 0.046"},
      {"sequence": "UAGACUGUCACCUUCUCUGAGUGAUUUACA", "pre-steady-state target cleavage rate": "0.00574 ± 0.0021"},
      {"sequence": "UACACUGUCACCUUGACUGAGAGAUUAUGA", "pre-steady-state target cleavage rate": "0.00988 ± 0.0053"},
      {"sequence": "UAGUGACAGUGGAAGAGAGAGAGAUGAACA", "pre-steady-state target cleavage rate": "< 0.0001"},
      {"sequence": "UAGUGUGUCACCUUCUCUGAGAGAAUAUGA", "pre-steady-state target cleavage rate": "0.0376 ± 0.015"},
      {"sequence": "UAGUGUGUCACCAUCUCUGAGAGAUAUUGA", "pre-steady-state target cleavage rate": "0.00443 ± 0.0043"},
      {"sequence": "UAGUGACUCACCUUCUCUGAGAGAUUAGACA", "pre-steady-state target cleavage rate": "0.215 ± 0.047"},
      {"sequence": "UAGUGACAGUCCUUCUCUGAGAGAUGAACA", "pre-steady-state target cleavage rate": "0.00623 ± 0.0023"},
      {"sequence": "UAGUGACAGUGGAAGAGUGAGUCUUUAACA", "pre-steady-state target cleavage rate": "< 0.0001"},
      {"sequence": "UAGUGUGUCACCUUCUCUGAGAGAUUAACA [g2:g25:cont:t1A]", "pre-steady-state target cleavage rate": "0.628 ± 0.03"},
      {"sequence": "UAGUGACACACCUUGUCUGACAGAUUAACA", "pre-steady-state target cleavage rate": "0.19 ± 0.046"},
      {"sequence": "UAGUGUGUCACCUUCACUGAGAGAUUUUGA", "pre-steady-state target cleavage rate": "0.0636 ± 0.025"},
      {"sequence": "UAGUGACUCACCUUUCUGAGAGAUUAACA", "pre-steady-state target cleavage rate": "0.0534 ± 0.0082"},
      {"sequence": "UAGUGUGUCUCCUUCUCAGAGAGAUUAACA", "pre-steady-state target cleavage rate": "0.127 ± 0.016"},
      {"sequence": "UAGUCUGUGACCUUGUCUGAGAGAUUAACA", "pre-steady-state target cleavage rate": "0.187 ± 0.022"},
      {"sequence": "UAGUGUCUCACCUUCUCUGAGAGUUUAACA", "pre-steady-state target cleavage rate": "0.488 ± 0.077"},
      {"sequence": "UAGUGACAGACCGUUCUCUGAGAGAUUAACA", "pre-steady-state target cleavage rate": "0.00991 ± 0.0025"},
      {"sequence": "UAGUCUGUCACCUUCUGUGAGAGAUAAACA", "pre-steady-state target cleavage rate": "0.0539 ± 0.0081"},
      {"sequence": "UAGUCUGUCACCUUCUCUGAGAGUAUUAACA", "pre-steady-state target cleavage rate": "0.462 ± 0.051"},
      {"sequence": "UUCACUGUCUGCUUCUCUGAGAGAUUAACA", "pre-steady-state target cleavage rate": "0.639 ± 0.038"},
      {"sequence": "UUCUCUGUCACCUUCUCUGAGAGAUAAACA", "pre-steady-state target cleavage rate": "0.235 ± 0.031"},
      {"sequence": "UAGUGACUCAGCUUCUCUGUGAGAUUAACA", "pre-steady-state target cleavage rate": "0.0335 ± 0.005"},
      {"sequence": "UUCACUGUCACCUUCUCUGAGAGAUUGAACA", "pre-steady-state target cleavage rate": "0.368 ± 0.063"},
      {"sequence": "UUCACUGUCACCUUCAGUGAGAGAUUAACA", "pre-steady-state target cleavage rate": "0.0717 ± 0.013"},
      {"sequence": "UAGUGACAGUGGUUUCUCUGAGAGAUUAACA", "pre-steady-state target cleavage rate": "0.00321 ± 0.0029"},
      {"sequence": "UAGUGACUCACCUUCUCUGAGAGAUAAACA", "pre-steady-state target cleavage rate": "0.303 ± 0.042"},
      {"sequence": "UAGUGACAGUGCUUCUCUGAGAGUAAAACA", "pre-steady-state target cleavage rate": "< 0.0001"},
      {"sequence": "UAGACUGUCACCUUCUCUGAGAGUAAAACA", "pre-steady-state target cleavage rate": "0.0358 ± 0.01"},
      {"sequence": "UAGACUGUCACCUACUGUGAGAGAUUAACA", "pre-steady-state target cleavage rate": "0.38 ± 0.025"},
      {"sequence": "AUCACUCUCACCUACUCUGAGAGAUUAACA", "pre-steady-state target cleavage rate": "0.464 ± 0.027"},
      {"sequence": "UAGACACACACCUUCUCUGAGAGAUAUUGA", "pre-steady-state target cleavage rate": "0.0297 ± 0.012"}
    ]}
  ]
}
